Among all 52,000 compounds or so, about 4,300 (8.3%) were called active. No stated cut-off is given here; in the data, active means survival mostly below about 52% (no sharp cut-off); inactive means mostly above about 56%. This is one part of the list.
The molecules below were run on DeltatarO mutant (assay: S. aureus survival, RN4220 and DeltatarO strains – OD600, teichoic acid synthesis inhibitors, primary screen (AID 463173)). Details: S. aureus RN4220 wild type/DeltatarO growth, OD600, 18 h, active compounds read low, screened at 18.75 µg/mL (by protocol).
In the case of Cc1cc(C)c(NS(=O)(=O)c2cc(-c3cnc(C4CC4)o3)ccc2C)c(C)c1, the survival is reported as inactive: 125%. With COc1ccc(CNC(=O)C2CCN(S(=O)(=O)c3ccc4nc5c(c(C(=O)O)c4c3)CC(C)CC5)CC2)cc1 (centres undefined) the survival was inactive: 62%. For CCN1C(=O)c2ccccc2Sc2ccc(NC(=O)Cc3ccc(OC)cc3)cc21, the survival was inactive: 62%. CCCn1cc(S(=O)(=O)c2cc(C)ccc2C)c(=O)c2cc(F)c(N3CCCCCC3)cc21 was tested, and the survival was inactive: 62%. In the case of COc1ccc(-c2cc(-c3ccccc3)nc3c2COc2ccccc2-3)cc1, the survival is reported as inactive: 71%. With CC(C)CC(=O)Nc1nnc2n1CCS2 the survival was inactive: 99%. With CCOc1ccc(NCc2cccn2-c2nnc(N3CCC(C(=O)NCc4cccc(OC)c4)CC3)s2)cc1 the survival was inactive: 80%. For COc1ccc(-n2nnc(C(=O)Nc3ccccc3F)c2N)cc1, the survival was inactive: 68%. CCc1ccccc1N(c1nc(-c2ccc(OC)c(OC)c2)no1)c1nc(-c2ccc(OC)c(OC)c2)no1 was tested, and the survival was inactive: 46%. COc1cccc(NC(=O)C(=O)NCCc2csc3nc(-c4ccccc4C)nn23)c1 was tested, and the survival was inactive: 72%. CC(C)(C)OC(=O)N1CCC(c2c(C(=O)NCc3ccccn3)cnn2-c2ccc(F)cc2)CC1 was tested, and the survival was inactive: 134%. COc1ccc2c(c1)c1c(c(=O)n(-c3cccc(C)c3)c(=O)n1CC(=O)N1CCCC1)n2C was tested, and the survival was inactive: 84%. In the case of Cc1cc(C)c2c(=O)cc(C(=O)Nc3ccc(S(=O)(=O)Nc4onc(C)c4C)cc3)oc2c1, the survival is reported as inactive: 49%. With CCC(C)NC(=O)c1ccc2c(c1)N=C(C)c1cc(C)ccc1S2 (centres undefined) the survival was inactive: 116%. For CCc1cccc(C)c1NC(=O)Cn1c(=O)n(-c2cccc(C)c2)c(=O)c2c1c1cc(C)ccc1n2C, the survival was inactive: 85%. In the case of COc1ccccc1N1CCN(C(=O)Cn2cnc3sc(C)c(S(=O)(=O)N4CCC(C)CC4)c3c2=O)CC1, the survival is reported as inactive: 84%. Cc1cccc(Cc2c(C)nc3nc(SCC(=O)NCc4ccc(F)cc4)nn3c2C)c1 was tested, and the survival was inactive: 56%. With CC(=O)NCc1nc2cccnc2n1Cc1ccccc1 the survival was inactive: 85%. For CC(=O)c1cc(-c2ccccc2)n(CCC(=O)NCCc2ccccc2)c1C, the survival was inactive: 112%. In the case of Cc1ccc(Cc2nc3ccccc3nc2SCC(=O)NCCc2ccccc2)cc1, the survival is reported as inactive: 67%. For Cc1nc2c(-c3ccc(F)cc3)c(C)nn2c(C)c1CCC(=O)N1CCN(c2ccc(F)cc2)CC1, the survival was inactive: 64%. In the case of Cc1oc(-c2cccc(Cl)c2)nc1CSc1nnc(C)n2c1cc1occc12, the survival is reported as inactive: 79%. For c1ccc(-n2nnnc2N2CCCC2)cc1, the survival was inactive: 78%. For Cc1ccccc1OCc1nnc(SCc2cc(=O)c3ccc(C)c(C)c3[nH]2)n1C, the survival was inactive: 72%.
